From article PMC4336329 (PLoS ONE, 2015)
About 2,200 (0.71%) of roughly 310,000 compounds showed an effect of 50% or more. Effects have a minus sign here. The list shows a part of the results.

Molecular target: human ether-à-go-go-related gene (hERG) potassium channel (human, UniProt Q12809)
Experiment: primary screen, population patch clamp on CHO cells stably expressing hERG

human ether-à-go-go-related gene (hERG) potassium channel, sequence (Q12809 whole entry, looked up): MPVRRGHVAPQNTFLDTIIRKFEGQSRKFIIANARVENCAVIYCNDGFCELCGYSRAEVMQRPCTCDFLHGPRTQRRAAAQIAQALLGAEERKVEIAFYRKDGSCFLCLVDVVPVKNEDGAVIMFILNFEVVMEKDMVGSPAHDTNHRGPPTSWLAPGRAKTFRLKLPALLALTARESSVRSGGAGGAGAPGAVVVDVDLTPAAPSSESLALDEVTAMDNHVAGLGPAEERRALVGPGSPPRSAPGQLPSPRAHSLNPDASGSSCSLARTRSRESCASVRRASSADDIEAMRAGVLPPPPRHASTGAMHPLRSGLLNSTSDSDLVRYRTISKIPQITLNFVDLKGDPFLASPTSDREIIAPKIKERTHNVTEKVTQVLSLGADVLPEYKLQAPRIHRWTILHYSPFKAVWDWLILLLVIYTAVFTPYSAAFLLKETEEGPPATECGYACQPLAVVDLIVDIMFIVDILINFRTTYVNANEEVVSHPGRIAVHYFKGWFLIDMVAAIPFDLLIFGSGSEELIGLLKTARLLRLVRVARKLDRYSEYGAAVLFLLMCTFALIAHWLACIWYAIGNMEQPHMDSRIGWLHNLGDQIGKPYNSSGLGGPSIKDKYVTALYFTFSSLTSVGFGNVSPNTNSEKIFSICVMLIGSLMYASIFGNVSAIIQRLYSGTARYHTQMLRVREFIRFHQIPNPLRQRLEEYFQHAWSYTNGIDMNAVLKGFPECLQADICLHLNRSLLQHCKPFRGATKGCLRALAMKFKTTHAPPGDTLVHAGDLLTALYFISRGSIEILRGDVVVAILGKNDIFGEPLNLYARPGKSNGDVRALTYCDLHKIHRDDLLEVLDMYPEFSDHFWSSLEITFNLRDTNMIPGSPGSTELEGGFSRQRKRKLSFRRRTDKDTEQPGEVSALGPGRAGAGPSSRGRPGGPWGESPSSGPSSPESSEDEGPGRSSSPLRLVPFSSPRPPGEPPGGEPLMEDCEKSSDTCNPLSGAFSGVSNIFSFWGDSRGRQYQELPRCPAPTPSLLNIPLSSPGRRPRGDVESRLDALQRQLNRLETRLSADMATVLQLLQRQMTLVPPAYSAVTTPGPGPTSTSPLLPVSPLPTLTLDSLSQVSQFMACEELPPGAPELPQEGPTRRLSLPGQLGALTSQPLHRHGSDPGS

Compound | hERG current change (%, negative = inhibition) at 1uM [%]
Cc1cc(C)c(C(N)=O)c(Cl)n1 | 18
COc1ccc(NC(=O)NNC(=O)CCc2ccc(O)c(O)c2)cc1OC | -3.49
CCNc1nc(NCC)nc(OCC(=O)O)n1 | 14.2
Cc1cccc(S(=O)(=O)Nc2ccc(-c3ccc4nncn4n3)cc2)c1 | -85.6
Fc1ccc(C2N(c3ccccc3)C(=S)N3CCCN23)cc1 (centres unmarked) | 3.18
CCC(=O)c1ccc(OCC(=O)Nc2ccccc2N2CCOCC2)cc1 | 7.05
CCc1nnc(NCn2nc(C)cc2C)s1 | 9.58
COc1ccc(-c2c(C)nc(N)nc2-c2ccc(OC)cc2O)cc1 | 17.2
COc1ccc(/C(N)=N/OC(=O)CSc2ccc(C)cc2)cc1OC | 5.19
CC(C)(C)OC(=O)CNC(=O)c1[nH]cnc1C(=O)NC1CCN(C(=O)OC(C)(C)C)CC1 | 9.32
COc1ccc(OC)c(NC(=O)c2[nH]c(C)c(C(C)=O)c2C)c1 | 16.8
COc1c(Cl)cnn(-c2cccc(C)c2)c1=O | 12.9
CCOc1ccc(S(=O)(=O)N(C)c2ccc(OCC(=O)Nc3nc(-c4cc(OC)ccc4OC)cs3)cc2)cc1 | 3.54
CCN(CC)CCCN(C(=O)Cn1nnc(-c2ccc(OC)c(OC)c2)n1)C(C(=O)NC(C)(C)C)c1ccc(F)cc1 (centres unmarked) | -25.2
COc1ccc(OC)c(C2=NOC(C(=O)Nc3ccccc3SC)C2)c1 (centres unmarked) | 10.3
Cc1cccc(NC(=O)N2CCN(Cc3ccc(Cl)cc3)CC2)c1 | -4.25
O=C(Nc1cccc(S(=O)(=O)NC2=NCCC2)c1)C1CCCCC1 | 12.8
CCCN(C(=O)C1CC(=O)N(c2ccccc2C(C)CC)C1)C1CCS(=O)(=O)C1 (centres unmarked) | 9.03
O=C(c1ccccn1)N1N=C2/C(=C/c3ccc(F)cc3)CCCC2C1c1ccc(F)cc1 (centres unmarked) | 4.86
Cc1cccc(N2CCN(C(=O)CCN3C(=O)C4C5C=CC(C5)C4C3=O)CC2C)c1 (centres unmarked) | -3.28
CCCC(C(=O)NCCC(C)C)N(Cc1ccc(OC)cc1)C(=O)c1snc(C(N)=O)c1N (centres unmarked) | 7
CCCc1nn2c(=O)cc(CSCC(=O)Nc3ccc(OC)cc3)nc2s1 | 9.83

Compound | hERG current change (%, negative = inhibition) at 1uM [%]
O=C(Nc1ccc(Cl)c([N+](=O)[O-])c1)c1ccc2c(c1)OCCO2 | 0.993
Cc1cccc(C)c1NC(=O)CN(C)C(=O)CCC(=O)c1ccccc1 | 2.78
CCCOc1ccc(C(NC(=O)CC(C)C)NC(=O)CC(C)C)cc1OC | 8.31
COc1ccccc1/C=C/c1onc(C)c1S(=O)(=O)N1CCC(C(=O)NC2CCCCCC2)CC1 | 11.7
COCCNS(=O)(=O)c1ccc(-c2ccc(S(=O)(=O)NCCOC)cc2)cc1 | -3.64
Cc1ccc(C(=O)NCc2ccc(Cl)cc2)o1 | 6.84
[Br-].c1sc2[n+](c1C13CC4CC(CC(C4)C1)C3)CCS2 | 13.3
COc1ccc(N(CC(=O)NCc2ccc(C)cc2)S(=O)(=O)c2c(C)noc2C)cc1 | 12.7
COc1cccc(C(=O)Nc2ccc3ccccc3c2)c1 | 11.3
COc1ccc2c(c1)c(CC(=O)Nc1cc(C)ccc1C)c(C)n2C(=O)c1ccc(Cl)cc1 | 15.4
O=C(O)c1ccccc1SCC(=O)N1c2ccccc2Sc2ccccc21 | 13
CN(C(=O)c1cccc(N2C(=O)C3CC=CCC3C2=O)c1)C1CCCCC1 (centres unmarked) | -2.87
CNC(=S)N/N=C/c1cn(CCOc2ccc(OC)cc2)c2ccccc12 | 2.53
O=C(O)CCC(=O)N1N=C(c2ccco2)CC1c1cccs1 (centres unmarked) | 9.68
Cc1cc(C)n2nc(-c3ccc(F)cc3)nc2n1 | 7.79
COc1ccccc1C(=O)N/C(=C/c1ccc2c(c1)OCO2)C(=O)Nc1ccc(C(=O)O)cc1 | 4.16
COc1ccccc1N1CCN(CC(=O)c2c[nH]c3ccccc23)CC1 | -12.3
CCN(CC)C(=O)c1ccc(NC(=O)CNC(C)c2cccc3ccccc23)cc1 (centres unmarked) | 19.1
Cc1ccc(OCC(=O)N2N=C(c3ccncc3)CC2(O)C(F)(F)F)cc1C (centres unmarked) | 17.2
Nc1c2nc(-c3ccccc3Cl)[nH]c(=O)c2nc(=O)n1-c1ccccc1 | 6.12
CC(=O)Nc1ccc(NC(C)=O)s1 | 3.19
O=C(CCN1c2ccccc2Sc2ccccc21)Nc1ccccc1 | 5.5

Compound | hERG current change (%, negative = inhibition) at 1uM [%]
CN(C)c1ccc(NC(=O)C2C3C=CC(C3)C2C(=O)O)cc1 (centres unmarked) | 4.87
COc1ccc(CCN(C)C2CCCN(C(=O)CCC(F)(F)F)C2)cc1OC (centres unmarked) | -12.8
CCOC(=O)c1c(C)c(C(=O)NCc2ccccn2)c(C)n1CC | 16.9
COc1cccc(-c2c(C(=O)N/N=C/c3ccoc3)nnn2-c2nonc2N)c1 | 12.8
COc1ccc(C(=O)N(Cc2ccccc2)c2cccc(C)c2)c(OC)c1OC | 13.1
Cc1ccccc1OCc1nc2ccccc2n1C | 11.9
CCOC(=O)N1CCN(c2nc(C(F)(F)F)nc3c(C)cc(C)cc23)CC1 | -3.24
COc1cc(NS(=O)(=O)c2ccc(NC(=O)COc3cccc(C)c3)cc2)nc(OC)n1 | 15.3
CCOC1(OCC)N=C(N)C2(C#N)C(c3ccc(NC(C)=O)cc3)C12C#N (centres unmarked) | 15.2
O=C(CSc1nnc(-c2ccccc2O)o1)N1CCc2ccccc2C1 | 13
Cc1ccc(N(CC(=O)NCc2ccncc2)S(C)(=O)=O)cc1Cl | 14.3
Cc1cc2c(cc1S(=O)(=O)CCC(=O)NC1CCCCC1C)OCC(=O)N2 (centres unmarked) | -16.4
COCCNC(=O)C(c1ccc(C)o1)N(C(=O)c1snc(C(N)=O)c1N)c1cc(C)cc(C)c1 (centres unmarked) | 3.18
CCN(CC)C(=O)Cn1cc(C(=O)C(=O)Nc2ccc3c(c2)OCCO3)c2ccccc21 | 9.88
COCCn1c(SCC(=O)Nc2cc(C)on2)nnc1-c1c[nH]c2ccccc12 | 2
COc1ccc(/C=c2/sc3n(c2=O)NC2(c4ccccc4)N(C)C(=O)N(C)C2(c2ccccc2)N=3)cc1 (centres unmarked) | 7.68
Cn1ccc(-c2ccccc2)n1 | 16.2
CCOc1cc(C(=O)Nc2cc(C)ccc2C)ccc1OCC(=O)N1CCCCC1 | 21.9
COc1ccccc1/C=C/c1onc(C)c1S(=O)(=O)N1CCC(C(=O)NC(C)C)CC1 | 3
O=C(c1ccc(Cn2c(=S)[nH]c3cc4c(cc3c2=O)OCO4)cc1)N1CCN(c2ccccc2)CC1 | 8.64
COc1ccc(C(=O)NC(=S)Nc2ccc(Cl)c(C(=O)O)c2)cc1 | 18
CCC(C)(C(=O)NC1CCCC1)N(Cc1ccco1)C(=O)c1ccc2c(c1)OCO2 (centres unmarked) | 8.08

Compound | hERG current change (%, negative = inhibition) at 1uM [%]
CC(C)(C)C(C(Oc1ccc(Cl)cc1)n1cncn1)n1nnnc1C(c1cccc(Cl)c1)N1CCCCC1 (centres unmarked) | -6.02
CC1(C)Cc2cccc(OCC(=O)Nc3cccnc3)c2O1 | 7.61
CN(C)C(=O)N1CCN(c2nc(-c3ccccc3)cs2)CC1 | 9.75
O=C(O)CCn1cnc2ccccc2c1=O | 17.6
O=C(Nc1ccccn1)C1CCN(S(=O)(=O)c2cccs2)CC1 | 7.56
COc1ccc(Cl)cc1S(=O)(=O)N1CCCC(C(=O)NCc2ccccn2)C1 (centres unmarked) | 5.14
CCOC(=O)c1sc(-c2ccccn2)nc1C | 3.11
O=C(O)/C=C/C(=O)Nc1ccc(Oc2ncnc3cc(Cl)ccc23)nc1 | 15.9
Fc1ccc(OCCOCCN2CCCC2)cc1 | 2.38
CC1CCCCN1C(=O)CSc1nc2ccccc2n1CC(=O)N1CCc2ccccc21 (centres unmarked) | -6.67
CCn1c(NCc2cc(Br)ccc2NS(=O)(=O)c2ccc(C)cc2)nc2ccccc21 | 11.1
CCOC(=O)c1c(C)[nH]c(C(=O)Cn2nnc(-c3ccccc3Cl)n2)c1C | 10.5
C/C(CC(=O)Nc1cc(C)ccn1)=N\NC(=O)C(=O)NC(C)C | 13.1
CCCCc1ccc(NC(=S)Nc2cccnc2)cc1 | 14.7
c1ccc(Cn2nnc(-c3ccccc3)n2)cc1 | -9.62
CC(Nc1ccccc1N1CCCCC1)C(=O)N1CCc2ccccc21 (centres unmarked) | 1.66
COc1ccc2sc(N(CCCN(C)C)C(=O)c3ccc(S(=O)(=O)N4CCCc5ccccc54)cc3)nc2c1.Cl | 10.3
Cc1cc(C(=O)OCC(=O)NC(C)C)c2ccccc2n1 | 3.18
Cc1ccc(C(=O)N/C(=C\c2cn(C)c3ccccc23)C(=O)NCCCN2CCOCC2)cc1 | 8.31
CCCNC(=O)C(Cc1ccc(OC)cc1)NC(=O)c1ccc(Cl)cc1 (centres unmarked) | 9.62
